# Some of the results follow.
# B1: CC1G-11630 (Coprinopsis cinerea), A8P462 (protein)
# chain: MTTEAKIKLKAVVYWELVFDYDNSSNTGEITQSYTVKISQTSTRSTFASEVSTTTIDTLTKNNQEVDVGASYGAISANVSASWEHSEEVNNMLEKTTQTSTEDTYTVETEETRSYTIGPGGMLSLFQKHFSGPGMHVAFDVFTTDLELAKERTEIDIDVDVEAIRFVREIRVVYTDIMSEAPGDHVREINGKNPDINYGFNGKFVWLVPEQTRKTAQALTNVEFVSQAESDDRYWDLAAGAGGSNRYLIPVYDTNNKDKIYELALWRSDSYITHDKVKAAGWSGTTGDINSGRGGTYLNLVWKTRHAY
# Columns and labels:
# Experiment in all cases: glycan array binding signal (z-score within array); higher = stronger binding
# Details in all cases: glycan notation: IUPAC condensed, linker removed
# [1] = target: Gal(b1-3)GlcNAc(b1-2)Man(a1-3)[Gal(b1-3)GlcNAc(b1-2)Man(a1-6)]Man(b1-4)GlcNAc(b1-4)GlcNAc
# How it was run: (§1)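 Columns mapping to the same glycan were averaged after glycan names were converted to IUPAC-condensed notation. The data come from 3228 arrays in the Consortium for Functional Glycomics database, limited to those with an available protein sequence. Binding is reported as a within-array Z-score averaged across arrays of one protein sequence and across linkers.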
# [2] = target: Gal(b1-3)GlcNAc(b1-2)Man(a1-3)[Gal(b1-3)GlcNAc(b1-2)Man(a1-6)]Man(b1-4)GlcNAc(b1-4)[Fuc(a1-6)]GlcNAc
# How it was run: as §1
# [3] = target: Gal(b1-3)GlcNAc(b1-2)Man(a1-3)[GlcNAc(b1-4)][Gal(b1-3)GlcNAc(b1-2)Man(a1-6)]Man(b1-4)GlcNAc(b1-4)GlcNAc
# How it was run: as §1
# [4] = target: Gal(b1-3)GlcNAc(b1-2)[Gal(b1-3)GlcNAc(b1-6)]Man(a1-6)[Gal(b1-3)GlcNAc(b1-2)Man(a1-3)]Man(b1-4)GlcNAc(b1-4)GlcNAc
# How it was run: as §1
# [5] = target: Gal(b1-3)GlcNAc(b1-3)Gal(b1-3)GlcNAc
# How it was run: as §1
# [6] = target: Gal(b1-3)GlcNAc(b1-3)Gal(b1-4)Glc
# How it was run: as §1
# [7] = target: Gal(b1-3)GlcNAc(b1-3)Gal(b1-4)GlcNAc
# How it was run: as §1
# [8] = target: Gal(b1-3)GlcNAc(b1-3)Gal(b1-4)GlcNAc(b1-2)Man(a1-3)[Gal(b1-3)GlcNAc(b1-3)Gal(b1-4)GlcNAc(b1-2)Man(a1-6)]Man(b1-4)GlcNAc(b1-4)GlcNAc
# How it was run: as §1
# [9] = target: Gal(b1-3)GlcNAc(b1-3)Gal(b1-4)GlcNAc(b1-2)[Gal(b1-3)GlcNAc(b1-3)Gal(b1-4)GlcNAc(b1-6)]Man(a1-6)[Gal(b1-3)GlcNAc(b1-3)Gal(b1-4)GlcNAc(b1-2)Man(a1-3)]Man(b1-4)GlcNAc(b1-4)[Fuc(a1-6)]GlcNAc
# How it was run: as §1
# [10] = target: Gal(b1-3)GlcNAc(b1-3)Gal(b1-4)GlcNAc(b1-3)Gal(b1-4)GlcNAc(b1-2)[Gal(b1-3)GlcNAc(b1-3)Gal(b1-4)GlcNAc(b1-3)Gal(b1-4)GlcNAc(b1-6)]Man(a1-6)[Gal(b1-3)GlcNAc(b1-3)Gal(b1-4)GlcNAc(b1-3)Gal(b1-4)GlcNAc(b1-2)Man(a1-3)]Man(b1-4)GlcNAc(b1-4)[Fuc(a1-6)]GlcNAc
# How it was run: as §1
# [11] = target: Gal(b1-3)GlcNAc(b1-3)Gal(b1-4)GlcNAc(b1-6)[Gal(b1-3)GlcNAc(b1-3)]Gal(b1-4)Glc
# How it was run: as §1
# [12] = target: Gal(b1-3)GlcNAc(b1-3)Gal(b1-4)[Fuc(a1-3)]GlcNAc
# How it was run: as §1
# [13] = target: Gal(b1-3)GlcNAc(b1-3)Gal(b1-4)[Fuc(a1-3)]GlcNAc(b1-6)[Gal(b1-3)GlcNAc(b1-3)]Gal(b1-4)Glc
# How it was run: as §1
# [14] = target: Gal(b1-3)GlcNAc(b1-3)GalNAc
# How it was run: as §1
# [15] = target: Gal(b1-3)GlcNAc(b1-6)Gal(b1-4)GlcNAc
# How it was run: as §1
# [16] = target: Gal(b1-3)GlcNAc(b1-6)GalNAc
# How it was run: as §1
# [17] = target: Gal(b1-3)GlcNAc(b1-6)[Gal(b1-3)]GalNAc
# How it was run: as §1
# Gal(b1-3)GlcNAc6S = target: Gal(b1-3)GlcNAc6S
# How it was run: as §1
# [18] = target: Gal(b1-3)[Fuc(a1-4)]GlcNAc
# How it was run: as §1
# [19] = target: Gal(b1-3)[Fuc(a1-4)]GlcNAc(b1-2)Man
# How it was run: as §1
# [20] = target: Gal(b1-3)[Fuc(a1-4)]GlcNAc(b1-2)Man(a1-3)[Gal(b1-3)[Fuc(a1-4)]GlcNAc(b1-2)Man(a1-6)]Man(b1-4)GlcNAc(b1-4)[Fuc(a1-6)]GlcNAc
# How it was run: as §1
# [21] = target: Gal(b1-3)[Fuc(a1-4)]GlcNAc(b1-3)Gal(b1-3)[Fuc(a1-4)]GlcNAc
# How it was run: as §1
# [22] = target: Gal(b1-3)[Fuc(a1-4)]GlcNAc(b1-3)Gal(b1-4)[Fuc(a1-3)]GlcNAc
# How it was run: as §1
# [23] = target: Gal(b1-3)[Fuc(a1-4)]GlcNAc(b1-6)GalNAc
# How it was run: as §1
# [24] = target: Gal(b1-3)[GlcNAc(b1-6)]GalNAc
# How it was run: as §1
# [25] = target: Gal(b1-3)[Neu5Ac(a2-6)]GalNAc
# How it was run: as §1
# [26] = target: Gal(b1-3)[Neu5Ac(a2-6)]GlcNAc(b1-4)Gal(b1-4)Glc
# How it was run: as §1
# [27] = target: Gal(b1-3)[Neu5Ac(b2-6)]GalNAc
# How it was run: as §1
# Gal(b1-4)Gal = target: Gal(b1-4)Gal
# How it was run: as §1
# [28] = target: Gal(b1-4)GalNAc(a1-3)[Fuc(a1-2)]Gal(b1-4)GlcNAc
# How it was run: as §1
# [29] = target: Gal(b1-4)GalNAc(b1-3)[Fuc(a1-2)]Gal(b1-4)GlcNAc
# How it was run: as §1
# Gal(b1-4)Glc = target: Gal(b1-4)Glc
# How it was run: as §1
# Gal(b1-4)Glc6S = target: Gal(b1-4)Glc6S
# How it was run: as §1
# Gal(b1-4)GlcNAc = target: Gal(b1-4)GlcNAc
# How it was run: as §1
# [30] = target: Gal(b1-4)GlcNAc(a1-6)Gal(b1-4)GlcNAc
# How it was run: as §1
# Gal(b1-4)GlcNAc(b1-2)Man = target: Gal(b1-4)GlcNAc(b1-2)Man
# How it was run: as §1
# [31] = target: Gal(b1-4)GlcNAc(b1-2)Man(a1-3)Man(b1-4)GlcNAc(b1-4)GlcNAc
# How it was run: as §1
binder,measurement,setting,value
B1,glycan array binding signal (z-score),[1],-0.037
same,glycan array binding signal (z-score),[2],-0.474
same,glycan array binding signal (z-score),[3],-0.314
same,glycan array binding signal (z-score),[4],0.113
same,glycan array binding signal (z-score),[5],0.152
same,glycan array binding signal (z-score),[6],-0.389
same,glycan array binding signal (z-score),[7],-0.431
same,glycan array binding signal (z-score),[8],-0.063
same,glycan array binding signal (z-score),[9],0.851
same,glycan array binding signal (z-score),[10],0.55
same,glycan array binding signal (z-score),[11],-0.632
same,glycan array binding signal (z-score),[12],-0.67
same,glycan array binding signal (z-score),[13],-0.619
same,glycan array binding signal (z-score),[14],-0.302
same,glycan array binding signal (z-score),[15],-0.07
same,glycan array binding signal (z-score),[16],-0.69
same,glycan array binding signal (z-score),[17],-0.034
same,glycan array binding signal (z-score),Gal(b1-3)GlcNAc6S,0.27
same,glycan array binding signal (z-score),[18],-0.297
same,glycan array binding signal (z-score),[19],2.23
same,glycan array binding signal (z-score),[20],0.558
same,glycan array binding signal (z-score),[21],-0.037
same,glycan array binding signal (z-score),[22],-0.245
same,glycan array binding signal (z-score),[23],0.201
same,glycan array binding signal (z-score),[24],-0.252
same,glycan array binding signal (z-score),[25],-0.079
same,glycan array binding signal (z-score),[26],-0.411
same,glycan array binding signal (z-score),[27],-0.611
same,glycan array binding signal (z-score),Gal(b1-4)Gal,1.01
same,glycan array binding signal (z-score),[28],-0.427
same,glycan array binding signal (z-score),[29],-0.639
same,glycan array binding signal (z-score),Gal(b1-4)Glc,-0.052
same,glycan array binding signal (z-score),Gal(b1-4)Glc6S,0.325
same,glycan array binding signal (z-score),Gal(b1-4)GlcNAc,-0.272
same,glycan array binding signal (z-score),[30],-0.631
same,glycan array binding signal (z-score),Gal(b1-4)GlcNAc(b1-2)Man,0.606
same,glycan array binding signal (z-score),[31],-0.45
